Structures are written as SMILES. In all, about 48,000 compounds went through this assay and about 120 (0.25%) were called active. Another 4% or so got no clear call; they are omitted. Calls come from the whole dose curve; as a rule, active = well fitted activation curve with a large enough effect; inconclusive = small, poorly fitted or top-dose-only effect, or another doubt; inactive = no such curve, though single readings can be large or run the other way. Some of the results follow.

A short description of the test: Primary qHTS for Identification of Small Molecule Activators of Huntingtin-Antisense Promoter Activity. Note: nearly all actives have a fitted effect of over 55% in size. The conditions noted are these: HEK293 HTT-AS promoter firefly luciferase reporter, 24 h; series mostly up to 57.5 µM; activity change, positive = activation: at the top concentration. An outline of the steps:
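Quantitative HTS used concentration series of up to 57.5 uM final on HEK293 luciferase reporter cells, 24 h at 37 degrees C. Readout was Dual-Glo firefly luminescence.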
For the compound `Cc1ccc(NC(=O)C2CCCN(c3ncnc4onc(-c5ccc(F)cc5)c34)C2)c(Cl)c1` (configuration not stated), the “activity change, positive = activation” value was inactive: -5.12%. Under `CCC(C)NC(=O)Cn1ccc2cc(S(=O)(=O)N3CCCCC3)ccc21` (configuration not stated) stands inactive: -8.09%. Under `Cc1cccc(N2CCN(C(=O)CN3C(=O)COc4ccc(S(=O)(=O)N5CCCCCC5)cc43)CC2)c1C` stands inactive: -31.6%; under `CSc1ncc(C(=O)N2CCN(c3cc(C)ccc3C)CC2)c(C)n1`, inactive: -29.6%. Under `CCCCn1cc(S(=O)(=O)c2ccc(OC)cc2)c(=O)c2cc(CC)ccc21` stands inactive: -2.26%; under `CNC(=O)C1CCC(Cn2c(=O)c3sccc3n(CC(=O)Nc3ccc(C)c(C)c3)c2=O)CC1` (configuration not stated), inactive: -22.8%; under `O=S(=O)(c1ccccc1)c1nnn2c1nc(NC1CCCCC1)c1sccc12`, inactive: -13.7%. Turning to `COc1ccc(CCNC(=O)C2CCC(CNS(=O)(=O)c3ccc(C)cc3)CC2)cc1OC` (configuration not stated), the “activity change, positive = activation” value was inactive: -19%. For `Cc1ccc(Cl)cc1NC(=O)Nc1nnc(N(C)Cc2ccccc2)s1` the value was inactive: -29%; for `COc1ccc(-c2cc(C)no2)cc1S(=O)(=O)N1CCc2ccccc21`, inactive: -20.5%; for `CCc1ccc(NC(=O)CN(c2ccc(C)cc2)S(=O)(=O)c2cccs2)cc1`, inactive: -9.08%. Under `Cc1ccc(CN(C(=O)c2ccccc2)c2ccccn2)o1` stands inactive: -12.7%. Under `O=C(O)CCCCn1c(SCC(=O)Nc2ccccc2C(F)(F)F)nc2ccsc2c1=O` stands inactive: -14.4%. Regarding `CCC1CN(C(=O)N2CCC(C(=O)NCCc3ccccc3Cl)CC2)c2cc(C)ccc2O1` (configuration not stated), the “activity change, positive = activation” value was inactive: -42.4%.

As to `CCCC(O)c1nc2ccccc2n1Cc1ccccc1OC` (configuration not stated), the “activity change, positive = activation” value is inactive: -41.1%. For `COc1cc(NC(=O)CN2c3ccccc3S(=O)(=O)c3ccccc32)cc(OC)c1` the value was inactive: -12%; for `Cc1ccc(Nc2nnc(-c3ccc(C)c(S(=O)(=O)N4CCN(C)CC4)c3)c3ccccc23)cc1`, inactive: -1.89% [at 11.5 µM, percent change from vehicle, -100% = no light]. Under `COCCNC(=O)CSc1nc(-c2cc(OC)c(OC)c(OC)c2)[nH]c1-c1ccc(Cl)cc1` stands inactive: -14.3%; under `CCOCCCn1c(SCC(=O)OCC)nc2c(sc3ccccc32)c1=O`, inactive: -4.46%. For the compound `Cc1ccc(C(=O)CSc2nc(-c3ccccc3)nc3c2CCCC3)c(C)c1`, the “activity change, positive = activation” value is inactive: -21%. Under `Cc1cccc(C(C)C)c1NC(=O)C1CCCN1S(=O)(=O)c1cccc2nsnc12` (configuration not stated) stands inactive: -5.88% [at 11.5 µM, percent change from vehicle, -100% = no light]; under `CCc1ccc(NC(=O)Cn2c(=O)n(CCCCC(=O)NCc3ccc4c(c3)OCO4)c(=O)c3ccccc32)cc1`, inactive: -28.5%. For `CC(=O)c1cc(-c2ccccc2)n(CCC(=O)NCc2ccc(C)cc2)c1C`, the “activity change, positive = activation” value was inactive: -14.8%. For `CCOc1ccccc1Nc1sc(C(=O)c2ccccc2)c(N)c1C(=O)Nc1ccccc1` the value was inactive: -31.3%; for `CCOc1ccccc1CNc1ccc2cc(S(=O)(=O)N3CCC(C)CC3)ccc2n1`, inactive: -31.1%.

Consider `COc1ccc(-c2nn3c(=O)cc(CN4CCN(C(=O)c5ccc(OC)c(OC)c5)CC4)nc3s2)cc1`, for which the “activity change, positive = activation” value was inactive: -9.99%. For `COc1ccc(-c2noc(N(c3nc(-c4ccc(OC)c(OC)c4)no3)c3ccccc3OC)n2)cc1OC` the value was inactive: 2.71%.

`CC(C)(C)c1ccc(C(=O)Nc2ccc3c(c2)CCCN3C(=O)c2cccs2)cc1`: the “activity change, positive = activation” value was inactive: -24.6%. For `Cc1ccc(OCC(=O)Nc2nnc(S(=O)(=O)N3c4ccccc4CC3C)s2)cc1` (configuration not stated), the “activity change, positive = activation” value was inactive: -15.6%.

Regarding `Cc1ccc(C(=O)Nc2ccc(S(=O)(=O)N3CCC(c4nc5ccccc5s4)CC3)cc2)cc1`, the “activity change, positive = activation” value is inactive: -16.6%. Consider `Cc1ccc(NC(=O)c2nc(S(C)(=O)=O)ncc2N(Cc2ccco2)Cc2cccs2)c(C)c1`, for which the “activity change, positive = activation” value is inactive: -31.1%.

For `Cc1ccc(NC(=O)CSc2nc(=O)n(CCN3CCOCC3)c3c2CCC3)c(C)c1`, the “activity change, positive = activation” value is inactive: -27.1%. For `C[C@@H]1COC(Nc2ccc3ncnc(Nc4ccc(OCc5nccs5)c(Cl)c4)c3c2)=N1` the value was inactive: -31.7%. Under `CC(=O)N1CCc2nc3sc(C(=O)c4ccc(F)cc4)c(N)c3c(C(F)(F)F)c2C1` stands inactive: -31.3%; under `CC(=O)c1cccc(NC(=O)c2nc(-c3ccccc3)n(-c3cccc(Cl)c3)n2)c1`, inactive: -15.7%; under `CCc1ccc(NC(=O)C(=O)NCC(c2cccnc2)N2CCN(c3ccc(F)cc3)CC2)cc1` (configuration not stated), inactive: -21.5%. Under `Cc1ccc(OCCCCn2nnc3sc4c(c3c2=O)CCCC4)cc1` stands inactive: -7.85%; under `Cc1ccc(NS(=O)(=O)c2ccc3[nH]c(=O)oc3c2)c(C)c1`, inactive: -11.9%. `O=C(CCC1N=C2c3ccccc3N=C(SCc3ccc(Cl)cc3)N2C1=O)NCCc1ccccc1` (configuration not stated): the “activity change, positive = activation” value was inactive: -12.9%. For `COc1cc2nc(SCC(=O)Nc3c(C)cc(C)cc3C)n3nc(CCn4c(C)nc5ccccc54)nc3c2cc1OC` the value was inactive: -14.5%; for `Fc1ccc(C(NCCc2ccc(Cl)cc2)c2nnc(-c3ccccc3)o2)c(Cl)c1` (configuration not stated), inactive: -20.6%. Under `COc1ccccc1CNC(=O)CCn1c(=O)c2ccccc2n(CC(=O)Nc2ccc(C)cc2Cl)c1=O` stands inactive: -7.84%; under `CCOC(=O)c1c(S(=O)(=O)NCC(=O)N2CCN(c3ccccc3)CC2)c(C)n(C)c1C`, inactive: -6.02%. Take `CCc1cccc(C)c1NC(=O)c1cc(S(=O)(=O)NCc2ccccc2Cl)ccc1F`: the “activity change, positive = activation” value is inactive: -41.9%.

As for `CCCn1c2ccccc2c2cnn(CC(=O)N(C)c3ccccc3CC)c(=O)c21`, the “activity change, positive = activation” value is inactive: -41.1%. For `CC(=O)NCC(c1ccc2c(c1)OCO2)N1CCN(c2ccccc2)CC1` (configuration not stated) the value was inactive: -6.76%. For `CCc1ccc(-n2c(=O)c3c(C)c(C)sc3n(CC(=O)NCc3ccc(C)cc3)c2=O)cc1` the value was inactive: 10.2%; for `CCCN(CCC)C(=O)Cn1c(=O)n(-c2ccccc2)c(=O)c2c3c(sc21)CCCC3`, inactive: -22.9%. Under `O=S(=O)(NCc1nc2cccnc2n1Cc1ccccc1)c1ccc2c(c1)CCCC2` stands inactive: -21.5%; under `N#C/C(=C/c1ccc(Cl)cc1)c1nc(-c2ccc(Br)cc2)cs1`, inactive: -4.74%; under `Cc1ccc(CSc2oc(-c3ccco3)nc2S(=O)(=O)c2ccc(C)cc2)cc1`, inactive: -12.5%. As for `COc1cc(/C=C(\C#N)c2nc3ccccc3[nH]2)cc(Cl)c1OCc1ccccc1Cl`, the “activity change, positive = activation” value is inactive: -35.4%. Under `COc1ccc(NC(=O)c2ccc3nc(CCc4ccccc4)oc3c2)c(OC)c1` stands inactive: 34.2%. For `Cc1ccccc1NC(=O)N1CCc2c(sc3c2CCCC3)C1c1ccccc1` (configuration not stated) the value was inactive: -22.6%; for `CCOc1ccc(C(=O)Nc2c(C(=O)c3ccc(OC)cc3)oc3ccccc23)cc1`, inactive: -5.5%; for `O=C(NCCc1ccccc1)c1ccc(Cn2c(SCc3cccc(F)c3)nc3cccnc32)cc1`, inactive: 3.46%. `CCS(=O)(=O)c1ncc(N(Cc2ccccc2)Cc2ccco2)c(C(=O)Nc2ccc(C)c(C)c2)n1`: the “activity change, positive = activation” value was inactive: -24.3%. `CCn1c(NCc2ccc(OC)cc2)nc2ccccc21`: the “activity change, positive = activation” value is inactive: 29%. Regarding `CCOc1ccc(NC(=O)c2ccc3c(=O)n4nc(Nc5ccccc5C)sc4nc3c2)cc1`, the “activity change, positive = activation” value was inactive: -6.04%. As for `COc1cc(C(CC(=O)Nc2ccc(F)cc2F)N2Cc3ccccc3C2=O)cc(OC)c1OC` (configuration not stated), the “activity change, positive = activation” value is inactive: -33.2%. Under `COCCNC(=O)CCc1c(C)nc2c(-c3ccc(F)cc3)c(C)nn2c1C` stands inactive: -36.3%; under `COc1ccc(CCNC(=O)CCCCn2c(=O)c3ccccc3n(Cc3ccccc3C)c2=O)cc1OC`, inactive: -40.3%. As to `CCC(=O)Nc1ccc(CC)cc1-c1nc2ccccc2n(CC(=O)Nc2cccc(Cl)c2)c1=O`, the “activity change, positive = activation” value is inactive: -35.4%.

Take `CCCCCn1cc2c(c1-c1ccc(Br)cc1)c(=O)n(C)c(=O)n2C`: the “activity change, positive = activation” value is inactive: -5.99%. Under `COc1ccc(OC)c(NC(=O)c2cc3cc(C)ccc3n2C)c1` stands inactive: -5.92%; under `CCc1ccccc1NC(=O)Cn1c(=O)n(-c2ccc(C)cc2)c(=O)c2c1c1cc(C)ccc1n2C`, inactive: -2.57%. For `COc1cccc(NC(=O)Cn2nnc(-c3nc(-c4ccccc4)no3)c2N)c1` the value was inactive: -17.7%; for `Cc1nc2ncnn2c(C)c1CCC(=O)N1CCN(c2ccccc2)CC1`, inactive: -6.37%. For `O=C(Cn1c(=O)oc2cc(Cl)ccc21)Nc1cccc(C(F)(F)F)c1` the value was inactive: -39.8%. For the compound `CCCSCCCNC(=O)C1CCCN(c2nn3cc(-c4ccc(OC)cc4)nc3s2)C1` (configuration not stated), the “activity change, positive = activation” value is inactive: -10.9%. As to `Cn1c(=O)c(=O)n(C)c2cc(NC(=O)c3cccc(F)c3)c(Cl)cc21`, the “activity change, positive = activation” value is inactive: -8.74%. For `COc1ccc(N(CC(=O)NCc2ccccc2Cl)S(=O)(=O)c2c(C)nn(C)c2C)cc1` the value was inactive: -19.3%; for `COc1ccc(CCNC(=O)Cn2c(=O)nc(-c3ccccc3)c3ccccc32)cc1OC`, inactive: -9.93%. For `CCOc1ccccc1CNC(=O)CCCn1ncn2c(cc3occc32)c1=O` the value was inactive: -10.7%.

In the case of `CCOc1ccc(C(=O)c2cn(CC(=O)Nc3ccc(F)cc3)c3cc4c(cc3c2=O)OCO4)cc1`, the “activity change, positive = activation” value was inactive: -30.4%. In the case of `CN(C)CCCN(C(=O)c1ccc(Br)s1)c1nc2ccc(F)cc2s1`, the “activity change, positive = activation” value is inactive: -7.36%. Under `Cc1ccc2cccc(NC(=O)COc3cc(C)c(Cl)c(C)c3)c2n1` stands inactive: -5.37%; under `Cc1nn(CC(=O)Nc2ccccc2C(F)(F)F)c(=O)c2cccn12`, inactive: -9%.

With `CCCCN(CC)CCNC(=O)CN1C(=O)COc2ccc(S(=O)(=O)N3CCCC3)cc21`, the “activity change, positive = activation” value was inactive: -7.32%.

Take `Cc1ccc(CCNC(=O)CCn2nc(-c3ccccc3)ccc2=O)cc1`: the “activity change, positive = activation” value is inactive: -6.27%.

As for `CCOc1ccc(CNS(=O)(=O)c2ccc3[nH]c(=O)ccc3c2)cc1`, the “activity change, positive = activation” value was inactive: -20%.

In the case of `CCC(=O)Nc1ccc2nc(SCCOc3ccccc3)sc2c1`, the “activity change, positive = activation” value is inactive: -20.7%.

On to `CCCCOc1ccc(CNC(=O)c2ccc(NC(=O)N3CCCCc4ccccc43)cc2)cc1`, for which the “activity change, positive = activation” value was inactive: -5.04%. Under `CC(=O)Nc1nonc1-c1nnc(SCC(=O)Nc2ccccc2)n1-c1ccccc1` stands inactive: -11.7%; under `Cc1ccc(NC(=O)CSc2ncn[nH]2)cc1C`, inactive: -9.34%.

`CCOc1ccccc1NC(=O)CCc1c(C)nn(-c2ccc(N3CCOCC3)nn2)c1C`: the “activity change, positive = activation” value is inactive: -12.2%.

As for `CNS(=O)(=O)c1cn(CC(=O)Nc2cccc(OC)c2)cc1S(=O)(=O)NC`, the “activity change, positive = activation” value is inactive: 0.344%.

Regarding `Cc1c(Cl)cccc1NC(=O)c1noc2c1CCCC2`, the “activity change, positive = activation” value was inactive: 38.2%. As for `COC(=O)c1ccc(-n2c(CCC(=O)O)ccc2-c2ccc(C)cc2)cc1`, the “activity change, positive = activation” value is inactive: -9.3%. Under `CCOC(=O)Cn1c(=O)n(CC2CCCO2)c2nc(-c3cccc(C)c3)nc(C(N)=O)c21` (configuration not stated) stands inactive: 1.5%; under `Cn1c(=O)oc2cc(S(=O)(=O)NC(Cc3ccccc3)C(=O)NCc3ccc(F)cc3)ccc21` (configuration not stated), inactive: 13.8%. For `Cc1ccc(C)c(N2CCN(Cc3nnc(-c4ccc5c(c4)OCO5)o3)CC2)c1` the value was inactive: 12.3%.

(Values after PubChem BioAssay AID1508624 (National Center for Advancing Translational Sciences (NCATS), 2021).)
